Laboratory results published in PubChem BioAssay AID485313 (National Center for Advancing Translational Sciences (NCATS), 2010).
The whole screen tested about 320,000 compounds, of which about 7,600 (2.4%) were called active. The inconclusive results got no clear call from the source; some entries with a clear call stand among them for comparison. The call rests on the fitted dose curve; in most records, active means well fitted activation curve with a large enough effect; inconclusive means small, poorly fitted or top-dose-only effect; inactive means no such curve, though single readings can be large or run the other way. No potency is given beside an inconclusive call; the fits are too rough.

experiment: qHTS Assay for NPC1 Promoter Activators; details: Huh7 NPC1 promoter luciferase reporter, 24 h; series mostly up to 9.22 µM; activation: at the top concentration; further: nearly all actives have a fitted effect of over 60% in size;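 on activation: reporter is driven by a mutant NPC1 promoter; % of control where 0% means no effect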
Summary of the method: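 Stably transfected Huh7 (NPC1 promoter→luciferase), 1500 cells/well in Opti-MEM + 10% FBS, 2 h settle, then compound 24 h at 37 °C. Luminescence after 10 min with Amplite reagent.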
Potency means the concentration at half of the fitted maximal effect; tags describe the fitted curve by direction and shape.

Row | Structure (SMILES) | activation | Potency
1 | Cc1csc2nc(O)c(C(=O)NC3CCCCC3C)c(=O)n12 (stereo not drawn) | inactive: -0.241% | 
2 | COc1ccc2oc(=O)c(-c3csc(Nc4ccc(O)cc4)n3)cc2c1 | inactive: 0.105% | 
3 | COc1ccc(CCNC(=O)C2(C)CCC(=O)N2Cc2ccc(F)cc2Cl)cc1OC (stereo not drawn) | inactive: -4.25% | 
4 | Cc1ccc(Nc2nc(N)nc(CSCCO)n2)cc1 |  | inconclusive [activator, partial curve]
5 | CN1CCc2c(sc(NC(=O)C3COc4ccccc4O3)c2C(N)=O)C1 (stereo not drawn) |  | inconclusive [activator, partial curve, poor fit]
6 | COc1ccc(C(=O)Nc2cccc(C(=O)O)c2)cc1S(=O)(=O)N1CCCC1 |  | inconclusive [activator, single point]
7 | Cc1cc(C)nc(NC(=O)/C=C/c2cccs2)c1 |  | inconclusive [activator, partial curve]
8 | CC1=NN(C(N)=S)C(=O)C1N=Nc1c(Cl)cc([N+](=O)[O-])cc1Cl (stereo not drawn) |  | inconclusive [activator, partial curve]
9 | CC(C)c1ccc(NC(=O)COC(=O)CSc2nnc(N)s2)cc1 | inactive: -0.358% | 
10 | O=C(COc1cccc2cccnc12)Nc1ccccc1 |  | inconclusive [activator, single point]
11 | Clc1cccc(Cl)c1Cn1ccc(C2CC2)n1 |  | inconclusive [activator, single point]
12 | COc1ccc(NC(=S)N2CCN(C(=O)c3ccco3)CC2)c(OC)c1 |  | inconclusive [activator, single point]
13 | Fc1cccc2sc(N3CCCCC3)nc12 |  | inconclusive [activator, partial curve]
14 | CCOC(=O)c1[nH]c(C)c(C(=O)OCC(=O)NCc2ccc(OC)c(OC)c2)c1C | inactive: -0.404% | 
15 | CCOC(=O)c1sc(/N=C/c2c(O)ccc3ccccc23)cc1C | inactive: 2.89% | 
16 | O=C(NNC1=NS(=O)(=O)c2ccccc21)c1ccc(Cl)cc1 |  | inconclusive [activator, single point]
17 | O=C(NC1CCCCCCC1)c1cccs1 |  | inconclusive [activator, partial curve]
18 | O=C(Cc1cccc(F)c1)Nc1ccc2c(c1)CCC2 |  | inconclusive [activator, single point]
19 | CCC(C)NC(=O)C1CCC(CNS(=O)(=O)c2ccccc2)CC1 (stereo not drawn) | inactive: -2.79% | 
20 | Cc1cc(C)n2nc(CC(=O)NNC(=O)COc3ccccc3)nc2n1 | inactive: -0.253% | 
21 | COc1ccccc1NC(=O)CSc1ccc2nnc(CCNC(=O)c3ccccc3)n2n1 | inactive: -0.885% | 
22 | CN1CCN(c2ccc(NC(=O)c3cccs3)cc2)CC1 |  | active: 3.16 µM
23 | COc1ccc2nc(/C=N/NC(=O)CCNC(=O)OC(C)(C)C)ccc2c1 |  | inconclusive [activator, single point]
24 | CC1CCCCC1NC(=O)CCS(=O)(=O)c1cc2c(cc1Cl)NC(=O)CO2 (stereo not drawn) | inactive: -4.36% | 
25 | Cc1ccc(-c2csc(N3C(=N)SCC3=O)n2)cc1 |  | inconclusive [activator, partial curve]
26 | Nc1c2c(nn1-c1ccccc1)CCC2 | inactive: 3.19% | 

Row | Structure (SMILES) | activation | Potency
27 | Cc1nc2ccccc2c(=O)n1/N=C/c1ccccc1F |  | inconclusive [activator, partial curve]
28 | Cc1c(C)c2ccc(OCC(=O)Nc3ccccn3)cc2oc1=O |  | active: 0.891 µM
29 | O=C(Nc1nc(-c2ccc(Cl)cc2)cs1)C1=COCCO1 |  | inconclusive [activator, single point]
30 | O=[N+]([O-])c1ccc(CSC2=NCCS2)cc1 | inactive: 3.92% | 
31 | Clc1ccccc1C1=Nn2c(nnc2-c2ccncc2)SC1 | inactive: 10.8% | 
32 | O=C(NCCc1cccs1)C1CC(c2ccccc2[N+](=O)[O-])=NO1 (stereo not drawn) |  | inconclusive [activator, partial curve]
33 | O=C(CSc1cn(Cc2ccccc2)c2ccccc12)Nc1nccs1 |  | active: 3.16 µM
34 | O=C(O)c1cc(/C=C/c2ccc(N3CCOCC3)c([N+](=O)[O-])c2)nc2ccccc12 |  | inconclusive [activator, single point]
35 | O=C(N/N=C/c1cccnc1)c1ccccc1OCc1cccc(Br)c1 | inactive: -4.41% | 
36 | Cc1nc2c(N=Nc3ccccc3F)c(N)nn2c(N)c1C#N |  | inconclusive [activator, single point]
37 | CCCCCCn1nc(C(=O)N(CCOC)c2c(N)n(CCCC)c(=O)[nH]c2=O)c2ccccc2c1=O | inactive: -3.77% | 
38 | Cc1nc(N)sc1-c1csc(Nc2cccc(O)c2)n1 |  | active: 3.55 µM
39 | Cc1ccc(C(=O)CCC(=O)O)cc1 | inactive: 4.04% | 
40 | O=C(NN1CCCCC1)c1cccc(COc2ccc(Cl)cc2)c1 |  | inconclusive [activator, partial curve]
41 | Fc1cccc2sc(Nc3nc4c(F)cccc4s3)nc12 |  | inconclusive [activator, single point]
42 | O=C(NC1=NCCS1)c1ccc(C(F)(F)F)cc1 |  | active: 2.82 µM
43 | CC(C)(C)Cc1nnc(NC(=O)CSc2ccccc2)s1 |  | inconclusive [activator, single point]
44 | C=CCn1c(SCC(=O)Nc2ccc(F)cc2F)nnc1-c1cnccn1 | inactive: 27.7% | 
45 | O=C(/C=C/c1cccc(Cl)c1)Nc1ncccn1 |  | inconclusive [activator, partial curve]
46 | CC(=O)c1ccc(NC(=O)Cc2ccsc2)cc1 |  | inconclusive [activator, partial curve]
47 | Cc1ccc(Cn2nc(C)cc2C(=O)Nc2ccccc2Cl)cc1 |  | inconclusive [activator, partial curve]
48 | CC(=O)NCCN=C(C)c1sc2ccccc2c1O |  | inconclusive [activator, single point]
49 | O=[N+]([O-])c1cccc(-c2cc3ccccc3[nH]2)c1 |  | inconclusive [activator, single point]
50 | COc1cccc(NC(=S)N/N=C2\CC3CCC2(C)C3(C)C)c1 (stereo not drawn) |  | inconclusive [activator, partial curve]
51 | Cc1cc(Nc2ccc(Cl)cc2)nc(N)n1 |  | inconclusive [activator, partial curve]
52 | CC(=O)c1cccc(Nc2nc(-c3cccnc3)cs2)c1 |  | active: 3.55 µM

Row | Structure (SMILES) | activation | Potency
53 | Cc1ccc(Nc2nc3ccccc3s2)c(C)c1 |  | active: 2 µM
54 | Nc1c(-c2cccs2)cnn1-c1nc(-c2ccc(F)cc2)cs1 |  | inconclusive [activator, partial curve]
55 | CC(=O)c1ccc(NC(=O)C2(c3ccccc3)CCOCC2)cc1 |  | active: 3.16 µM
56 | c1ccc(SCc2nc3ccccc3[nH]2)nc1 |  | inconclusive [activator, single point]
57 | Cc1cccc(C(=O)OCC(=O)N2CCCCCC2)c1 |  | inconclusive [activator, partial curve]
58 | O=c1cc(-c2ccc(O)cc2)oc2cc(O)cc(O)c12 |  | inconclusive [activator, single point]
59 | Cc1ccc(NC2=C/C(=N\S(=O)(=O)c3cccs3)c3ccccc3C2=O)c(C)c1 |  | inconclusive [activator, partial curve]
60 | COC(=O)c1sccc1NC(=S)OC |  | inconclusive [activator, single point]
61 | CCCCN(C)C(=O)CCC(=O)Nc1ccc2nc(N3CCOCC3)cc(C)c2c1 |  | inconclusive [activator, partial curve]
62 | Cc1ccc(N=Cc2c(C)[nH]n(-c3nc4ccccc4[nH]3)c2=O)cc1 |  | inconclusive [activator, single point]
63 | COc1ccc2oc(C(=O)NCCC(C)C)c(C)c2c1 |  | active: 3.16 µM
64 | c1ccc(Nc2nc(-c3cccnc3)cs2)nc1 |  | active: 1 µM
65 | COC(=O)c1ccc(-c2noc(CN3C[C@H]4CC[C@H]3C4)n2)cc1 |  | inconclusive [activator, partial curve]
66 | CCN(CC)S(=O)(=O)c1ccc(C)c(NC(=S)N2CCN(C/C=C/c3ccccc3)CC2)c1 | inactive: -28.1% | 
67 | COc1ccc(C2Nc3ccccc3C(=O)N2c2ccc(C)cc2)cc1COc1ccccn1 (stereo not drawn) |  | active: 3.16 µM
68 | CSc1ccccc1OCc1cc(C(=O)NC(C)Cc2cccc(C)n2)no1 (stereo not drawn) |  | inconclusive [activator, single point]
69 | N=C1C(c2nc3ccccc3s2)=C(O)CN1C1CCCCC1 |  | inconclusive [activator, single point]
70 | O=C(NC(=S)Nc1ccccn1)c1ccc([N+](=O)[O-])cc1 |  | active: 2 µM
71 | C/C(=N/OC(=O)C1CC1)c1cc(-c2ccc(Cl)cc2)no1 |  | inconclusive [activator, partial curve]
72 | Cc1nn2c(-c3ccc(F)cc3)ccnc2c1Br | inactive: -7.25% | 
73 | Cc1nn(C)cc1/C=C/C(=O)c1cccs1 |  | inconclusive [activator, single point]
74 | COc1ccc(C(=O)CSc2ccccc2C(=O)O)cc1 |  | active: 2.24 µM
75 | Cc1cccc(NC(=O)Nc2ccc(Cl)c(Cl)c2)n1 |  | inconclusive [activator, single point]
76 | COc1cc(C(=O)Nc2ccc(NC(=O)c3ccco3)nc2)cc(OC)c1OC | inactive: -2% | 
77 | Cc1ccccc1/C=C/c1nc2ccccc2c(=O)[nH]1 |  | inconclusive [activator, full curve]
78 | Cc1c(C(=O)N2CCOCC2)oc2ccc(S(=O)(=O)N3CCCC3)cc12 |  | inconclusive [activator, single point]
